Measurements from PMC5892938.
Some of the results follow. At the low end of the ranking the order means little.

What follows are sequences tested against GST-SBP-SLBP (stem-loop binding protein) (UniProt Q14493) (assay: targeted RNA Bind-n-Seq). Settings: RBNS binding buffer: 25 mM Tris pH 7.5, 150 mM KCl, 3 mM MgCl2, 0.1% Tween, 0.5 mg/mL BSA, 1 mM DTT; 27 nM protein, 750 pM RNA pool; temperature not stated; high values mean tight binding.
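Note: DESeq read counts versus GST-SBP nonspecific binding control pulldown.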

Row | Sequence | binding signal (log2 fold change)
1 | GGUCACGUCUCAAUCAACUCUUCUCCCAGGGAAAGCCCUGGCUAAUUCAACAGCUCGCAGUCAAG | 0.0612
2 | GGUCACGUCUCAAUCAACUCAACUUCAGGAGUUUGCUCCUGUAUACUCAACAGCUCGCAGUCAAG | 0.119
3 | GGUCACGUCUCAAUCAACUCUUCAGAGGGGGGGAAAACCCCUUUACCCUCAAAUUCAACAGCUCGCAGUCAAG | -0.195
4 | GGUCACGUCUCAAUCAACUCAUCGGCAGGAGUUUACUCCUGGAAUUUCAACAGCUCGCAGUCAAG | -0.203
5 | GGUCACGUCUCAAUCAACUCUACUUCAGGAGUUUCCUCCUGCUUUUUCAACAGCUCGCAGUCAAG | 0.0722
6 | GGUCACGUCUCAAUCAACUCUUCCUCAGGAGUUUUCUCCUGUUAAUUCAACAGCUCGCAGUCAAG | -0.0612
7 | GGUCACGUCUCAAUCAACUCAAUCUCCAGGGAAAGCCCUGGUUAAUUCAACAGCUCGCAGUCAAG | -0.0604
8 | GGUCACGUCUCAAUCAACUCAUUAGAGGGGGGGAAAACCCCUUUGCCCUCACAAUCAACAGCUCGCAGUCAAG | -0.0117
9 | GGUCACGUCUCAAUCAACUCAAGUCCCAGGGAAAACCCUGGCAAUUUCAACAGCUCGCAGUCAAG | 0.381
10 | GGUCACGUCUCAAUCAACUCUUUUCCAGGAGUUUACUCCUGUUAUUUCAACAGCUCGCAGUCAAG | -0.104
11 | GGUCACGUCUCAAUCAACUCAUCGUCCAGGGAAACCCCUGGUUAUUUCAACAGCUCGCAGUCAAG | -0.287
12 | GGUCACGUCUCAAUCAACUCAUUCCCCAGGGAAAGCCCUGGCAUACUCAACAGCUCGCAGUCAAG | 0.156
13 | GGUCACGUCUCAAUCAACUCUAUUCCAGGAGUUUUCUCCUGCAAUUUCAACAGCUCGCAGUCAAG | 0.0122
14 | GGUCACGUCUCAAUCAACUCUUUCUCCAGGGAAACCCCUGGCAAUGUCAACAGCUCGCAGUCAAG | -0.0458
15 | GGUCACGUCUCAAUCAACUCCUCGGAGGGGGGGAAAACCCCUUUACCCUCAAACUCAACAGCUCGCAGUCAAG | -0.321
16 | GGUCACGUCUCAAUCAACUCUAUUCCCAGGGAAAUCCCUGGCUAAUUCAACAGCUCGCAGUCAAG | 0.0909
17 | GGUCACGUCUCAAUCAACUCAAUUCCCAGGGAAAUCCCUGGCUAAUUCAACAGCUCGCAGUCAAG | -0.351
18 | GGUCACGUCUCAAUCAACUCAUCUCCCAGGGAAAUCCCUGGUUUAUUCAACAGCUCGCAGUCAAG | 0.149
19 | GGUCACGUCUCAAUCAACUCUUCGUCCAGGGAAAUCCCUGGUUUUUUCAACAGCUCGCAGUCAAG | -0.299
20 | GGUCACGUCUCAAUCAACUCAAGUCCAGGAGUUUACUCCUGUUAUCUCAACAGCUCGCAGUCAAG | -0.0977
21 | GGUCACGUCUCAAUCAACUCAAUCGAGGGGGGGAAAACCCCUUUACCCUCACCAUCAACAGCUCGCAGUCAAG | -0.157
22 | GGUCACGUCUCAAUCAACUCAUUAGAGGGGGGGAAAACCCCUUUGCCCUCAAACUCAACAGCUCGCAGUCAAG | 0.106
23 | GGUCACGUCUCAAUCAACUCUAUUUCCAGGGAAACCCCUGGCAUUUUCAACAGCUCGCAGUCAAG | 0.0122
24 | GGUCACGUCUCAAUCAACUCUUUUCCCAGGGAAAUCCCUGGCUAAUUCAACAGCUCGCAGUCAAG | -0.0664

Row | Sequence | binding signal (log2 fold change)
25 | GGUCACGUCUCAAUCAACUCUUCUCCCAGGGAAACCCCUGGUUAAUUCAACAGCUCGCAGUCAAG | -0.132
26 | GGUCACGUCUCAAUCAACUCUACUUCAGGAGUUUACUCCUGCAUACUCAACAGCUCGCAGUCAAG | -0.00113
27 | GGUCACGUCUCAAUCAACUCCCAAGAGGGGGGGAAAACCCCUUUGCCCUCGUAUUCAACAGCUCGCAGUCAAG | -0.0627
28 | GGUCACGUCUCAAUCAACUCAUCCCCAGGAGUUUCCUCCUGCAUAUUCAACAGCUCGCAGUCAAG | 0.0384
29 | GGUCACGUCUCAAUCAACUCUUUUUCCAGGGAAAUCCCUGGUUAAUUCAACAGCUCGCAGUCAAG | -0.134
30 | GGUCACGUCUCAAUCAACUCCCCAGAGGGGGGGAAAACCCCUUUACCCUCGAAAUCAACAGCUCGCAGUCAAG | -0.164
31 | GGUCACGUCUCAAUCAACUCUUCUUCCAGGGAAACCCCUGGCUUAUUCAACAGCUCGCAGUCAAG | 0.137
32 | GGUCACGUCUCAAUCAACUCAUCCUCAGGAGUUUCCUCCUGCAUAGUCAACAGCUCGCAGUCAAG | 0.106
33 | GGUCACGUCUCAAUCAACUCUAUCUCAGGAGUUUUCUCCUGUUAACUCAACAGCUCGCAGUCAAG | 0.0651
34 | GGUCACGUCUCAAUCAACUCUUCUUCCAGGGAAACCCCUGGUAAUCUCAACAGCUCGCAGUCAAG | 0.352
35 | GGUCACGUCUCAAUCAACUCAUCGCCAGGAGUUUUCUCCUGUAUACUCAACAGCUCGCAGUCAAG | 0.0118
36 | GGUCACGUCUCAAUCAACUCUAUCUCAGGAGUUUCCUCCUGUUUUGUCAACAGCUCGCAGUCAAG | 0.0279
37 | GGUCACGUCUCAAUCAACUCAUUAGAGGGGGGGAAAACCCCUUUGCCCUCGUCAUCAACAGCUCGCAGUCAAG | 0.19
38 | GGUCACGUCUCAAUCAACUCCCUAGAGGGGGGGAAAACCCCUUUACCCUCAACCUCAACAGCUCGCAGUCAAG | -0.449
39 | GGUCACGUCUCAAUCAACUCAUCCUCAGGAGUUUGCUCCUGCAUUCUCAACAGCUCGCAGUCAAG | 0.219
40 | GGUCACGUCUCAAUCAACUCCCUGGAGGGGGGGAAAACCCCUUUACCCUCAUUCUCAACAGCUCGCAGUCAAG | -0.741
41 | GGUCACGUCUCAAUCAACUCAAUCUCCAGGGAAAACCCUGGCUAUGUCAACAGCUCGCAGUCAAG | 0.19
42 | GGUCACGUCUCAAUCAACUCAUUUUCCAGGGAAAGCCCUGGCGUUUUCAACAGCUCGCAGUCAAG | 0.0924
43 | GGUCACGUCUCAAUCAACUCUAUCUCAGGAGUUUGCUCCUGCUUUUUCAACAGCUCGCAGUCAAG | -0.135
44 | GGUCACGUCUCAAUCAACUCUUUCGCAGGAGUUUUCUCCUGGUUUUUCAACAGCUCGCAGUCAAG | 0.0124
45 | GGUCACGUCUCAAUCAACUCACAAGAGGGGGGGAAAACCCCUUUACCCUCCGUAUCAACAGCUCGCAGUCAAG | -0.371
46 | GGUCACGUCUCAAUCAACUCAUAAGAGGGGGGGAAAACCCCUUUACCCUCAACAUCAACAGCUCGCAGUCAAG | -0.112
47 | GGUCACGUCUCAAUCAACUCAUCCUCAGGAGUUUCCUCCUGCAAUUUCAACAGCUCGCAGUCAAG | -0.0376
